# Measured values published in a collection of fitness landscapes (doi:10.1016/j.celrep.2020.107928).
# Over roughly 81,000 sequences, “one-hybrid fitness for binding parS DNA” has its median near -0.17; the highest 2% begin near 0.51. The list shows a part of the results.
# B1: Caulobacter ParB omega fusion; a variant is named by its letters at X, in order, B8GW30 (parent)
# chain: MESVVVGEPGMSEGRRGLGRGLSALLGEVDAAPAQAPGEQLGGSREAPIEILQRNPDQPRRTFREEDLEDLSNSIREKGVLQPILVRPSPDTAGEYQIVAGERAWRAAQRAGLKTVPIMVRELDDLAVLEIGIIENVQRADLNVLEEALSYKVLMEKFERTQENIAQTIGKSXSHVANXMRLLXLPDEVQSYLVSGELTAXHARAIAAAADPVALAKQIIEGGLSVRETEALARKAPNLSAGKSKGGRPPRVKDTDTQALESDLSSVLGLDVSIDHRGSTGTLTITYATLEQLDDLCNRLTRGI
# Variants of: B1
# Test: one-hybrid fitness for binding parS DNA (scaled: cognate 1, non-cognate 0); higher = stronger binding
# Conditions: with parS DNA site
# Procedure, shortened: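 Selection: bacterial one-hybrid in E. coli USO, HIS3 reporter with the site 19 bp from the promoter, 48 hours at 37°C on M9-minus-histidine plus 0.1 mM IPTG and 5 mM 3-AT. Libraries were Caulobacter ParB with four randomised specificity codons, sequenced on Illumina before and after selection. Fitness is the rescaled log change in variant-to-wild-type read ratio, anchored to the cognate and non-cognate sites.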
row,Variant,one-hybrid fitness for binding parS DNA
1,HKAY,≤ 0.2
2,RPIR,≤ 0.2
3,VFAY,≤ 0.2
4,QQEL,≤ 0.2
5,MSCR,≤ 0.2
6,TCKK,≤ 0.2
7,FQQR,≤ 0.2
8,VLGI,≤ 0.2
9,KVYS,≤ 0.2
10,QLLT,≤ 0.2
11,LHNA,≤ 0.2
12,LIME,≤ 0.2
13,ARCT,≤ 0.2
14,QFTT,≤ 0.2
15,WCAS,≤ 0.2
16,NWQG,≤ 0.2
17,RLCD,≤ 0.2
18,WKKS,≤ 0.2
19,DKKD,≤ 0.2
20,HNKT,≤ 0.2
21,HLVC,≤ 0.2

row,Variant,one-hybrid fitness for binding parS DNA
1,NAAN,≤ 0.2
2,ATKH,≤ 0.2
3,SSQV,≤ 0.2
4,QYEW,≤ 0.2
5,NMGM,≤ 0.2
6,QDFY,≤ 0.2
7,TPDN,≤ 0.2
8,VGLW,≤ 0.2
9,NMSY,≤ 0.2
10,TGWG,≤ 0.2
11,ISDE,≤ 0.2
12,LFLT,≤ 0.2
13,LDDC,≤ 0.2
14,MILL,≤ 0.2
15,LTRD,≤ 0.2
16,TRKR,≤ 0.2
17,LNTW,≤ 0.2
18,FKVG,≤ 0.2
19,AIPK,≤ 0.2
20,AMNG,≤ 0.2
21,SSDV,≤ 0.2

row,Variant,one-hybrid fitness for binding parS DNA
1,ISNN,≤ 0.2
2,SRTA,≤ 0.2
3,NMTK,≤ 0.2
4,VKSD,≤ 0.2
5,IAPL,≤ 0.2
6,MPMI,≤ 0.2
7,KILG,≤ 0.2
8,LIVG,≤ 0.2
9,DRTL,≤ 0.2
10,PDVI,≤ 0.2
11,VFKM,≤ 0.2
12,CLSP,≤ 0.2
13,YTVA,≤ 0.2
14,KIER,≤ 0.2
15,GCTW,≤ 0.2
16,LPDF,≤ 0.2
17,EDSE,≤ 0.2
18,TPRG,≤ 0.2
19,KGNY,≤ 0.2
20,CYSS,≤ 0.2
21,TGRY,≤ 0.2

row,Variant,one-hybrid fitness for binding parS DNA
1,YWDM,≤ 0.2
2,CRRF,≤ 0.2
3,LWLT,≤ 0.2
4,GTDA,≤ 0.2
5,IYKG,≤ 0.2
6,GFVS,≤ 0.2
7,INRS,≤ 0.2
8,WLKC,≤ 0.2
9,DILY,≤ 0.2
10,VARW,≤ 0.2
11,RDKT,≤ 0.2
12,APLP,≤ 0.2
13,RNMF,≤ 0.2
14,SVHC,≤ 0.2
15,NTHW,≤ 0.2
16,CQGT,≤ 0.2
17,QTTT,≤ 0.2
18,QAAT,≤ 0.2
19,QERE,≤ 0.2
20,FGYS,≤ 0.2
21,QISD,≤ 0.2
